In publication PMC11904782:
These are yes or no findings as the source states them, for the method shown. In cells and extracts the contact can be indirect. Some results given as binding are weak or reduced against the parent protein; the word gives no strength.

Sequences of proteins named here, by UniProt entry; tags and fusion partners are left off. A change or cut given only in a name is not applied to a line headed by its entry. Residues count along the entry.
UniProt O14497: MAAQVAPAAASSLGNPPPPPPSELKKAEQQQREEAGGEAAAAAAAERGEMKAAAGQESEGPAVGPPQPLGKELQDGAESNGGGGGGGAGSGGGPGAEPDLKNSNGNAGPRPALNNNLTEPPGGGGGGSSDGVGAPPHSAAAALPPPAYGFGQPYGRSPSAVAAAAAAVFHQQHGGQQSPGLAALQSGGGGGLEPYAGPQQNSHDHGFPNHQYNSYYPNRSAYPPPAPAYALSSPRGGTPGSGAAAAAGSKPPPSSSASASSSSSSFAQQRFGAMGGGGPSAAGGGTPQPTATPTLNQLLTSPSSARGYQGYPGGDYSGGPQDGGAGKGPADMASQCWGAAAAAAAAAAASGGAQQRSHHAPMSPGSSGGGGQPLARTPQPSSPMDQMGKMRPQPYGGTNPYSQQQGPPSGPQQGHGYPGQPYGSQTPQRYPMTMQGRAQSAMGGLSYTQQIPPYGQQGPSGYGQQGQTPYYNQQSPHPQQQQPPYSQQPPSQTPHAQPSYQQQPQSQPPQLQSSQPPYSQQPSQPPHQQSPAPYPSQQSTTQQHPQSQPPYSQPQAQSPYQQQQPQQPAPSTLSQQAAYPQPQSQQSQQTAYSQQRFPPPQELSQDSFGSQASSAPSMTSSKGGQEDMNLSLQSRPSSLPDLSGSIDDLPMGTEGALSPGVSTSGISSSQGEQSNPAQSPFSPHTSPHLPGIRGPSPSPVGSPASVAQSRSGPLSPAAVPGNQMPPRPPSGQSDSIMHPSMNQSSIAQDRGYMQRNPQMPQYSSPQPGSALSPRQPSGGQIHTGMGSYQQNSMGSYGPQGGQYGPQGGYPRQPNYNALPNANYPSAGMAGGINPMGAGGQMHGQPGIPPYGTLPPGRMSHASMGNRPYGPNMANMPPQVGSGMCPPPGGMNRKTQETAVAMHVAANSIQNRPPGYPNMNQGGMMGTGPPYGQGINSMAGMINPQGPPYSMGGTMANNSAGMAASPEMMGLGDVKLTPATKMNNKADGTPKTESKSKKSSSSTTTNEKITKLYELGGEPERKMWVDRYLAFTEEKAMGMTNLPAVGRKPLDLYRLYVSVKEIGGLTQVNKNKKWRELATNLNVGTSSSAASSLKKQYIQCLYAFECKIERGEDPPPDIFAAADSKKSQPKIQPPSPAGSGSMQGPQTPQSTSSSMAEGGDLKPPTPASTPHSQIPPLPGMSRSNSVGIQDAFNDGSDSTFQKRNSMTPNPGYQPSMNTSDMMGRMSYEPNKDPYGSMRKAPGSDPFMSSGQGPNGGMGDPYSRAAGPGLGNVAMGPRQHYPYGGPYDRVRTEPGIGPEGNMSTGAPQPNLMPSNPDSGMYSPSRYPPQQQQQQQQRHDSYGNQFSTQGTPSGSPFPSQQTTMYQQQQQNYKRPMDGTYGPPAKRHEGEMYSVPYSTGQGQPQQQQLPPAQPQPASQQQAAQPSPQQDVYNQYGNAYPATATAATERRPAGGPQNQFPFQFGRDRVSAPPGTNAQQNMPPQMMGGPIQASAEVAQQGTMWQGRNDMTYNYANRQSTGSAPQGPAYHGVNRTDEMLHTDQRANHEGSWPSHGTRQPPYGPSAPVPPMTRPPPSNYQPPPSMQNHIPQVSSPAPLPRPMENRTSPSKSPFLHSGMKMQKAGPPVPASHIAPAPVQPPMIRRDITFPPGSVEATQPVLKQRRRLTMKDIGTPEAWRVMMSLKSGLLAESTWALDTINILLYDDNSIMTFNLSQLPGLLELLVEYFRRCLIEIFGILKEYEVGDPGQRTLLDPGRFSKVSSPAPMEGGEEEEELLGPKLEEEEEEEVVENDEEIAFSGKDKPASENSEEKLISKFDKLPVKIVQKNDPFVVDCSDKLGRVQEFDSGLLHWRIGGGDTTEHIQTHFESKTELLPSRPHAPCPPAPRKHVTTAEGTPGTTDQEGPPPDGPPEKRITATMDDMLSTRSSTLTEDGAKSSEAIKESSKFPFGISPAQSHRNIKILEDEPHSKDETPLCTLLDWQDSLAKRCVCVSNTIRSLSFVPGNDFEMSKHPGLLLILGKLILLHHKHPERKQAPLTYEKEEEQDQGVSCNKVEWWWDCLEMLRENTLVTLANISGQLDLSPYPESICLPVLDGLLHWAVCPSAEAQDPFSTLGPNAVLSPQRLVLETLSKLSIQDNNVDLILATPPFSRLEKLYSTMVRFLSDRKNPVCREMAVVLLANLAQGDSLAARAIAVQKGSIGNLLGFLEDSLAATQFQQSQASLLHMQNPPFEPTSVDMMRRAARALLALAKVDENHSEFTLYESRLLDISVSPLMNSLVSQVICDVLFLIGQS
GST–ARID1A–ARM domain (1914–2285 aa): residues 1914-2285 of O14497
UniProt Q8NFD5: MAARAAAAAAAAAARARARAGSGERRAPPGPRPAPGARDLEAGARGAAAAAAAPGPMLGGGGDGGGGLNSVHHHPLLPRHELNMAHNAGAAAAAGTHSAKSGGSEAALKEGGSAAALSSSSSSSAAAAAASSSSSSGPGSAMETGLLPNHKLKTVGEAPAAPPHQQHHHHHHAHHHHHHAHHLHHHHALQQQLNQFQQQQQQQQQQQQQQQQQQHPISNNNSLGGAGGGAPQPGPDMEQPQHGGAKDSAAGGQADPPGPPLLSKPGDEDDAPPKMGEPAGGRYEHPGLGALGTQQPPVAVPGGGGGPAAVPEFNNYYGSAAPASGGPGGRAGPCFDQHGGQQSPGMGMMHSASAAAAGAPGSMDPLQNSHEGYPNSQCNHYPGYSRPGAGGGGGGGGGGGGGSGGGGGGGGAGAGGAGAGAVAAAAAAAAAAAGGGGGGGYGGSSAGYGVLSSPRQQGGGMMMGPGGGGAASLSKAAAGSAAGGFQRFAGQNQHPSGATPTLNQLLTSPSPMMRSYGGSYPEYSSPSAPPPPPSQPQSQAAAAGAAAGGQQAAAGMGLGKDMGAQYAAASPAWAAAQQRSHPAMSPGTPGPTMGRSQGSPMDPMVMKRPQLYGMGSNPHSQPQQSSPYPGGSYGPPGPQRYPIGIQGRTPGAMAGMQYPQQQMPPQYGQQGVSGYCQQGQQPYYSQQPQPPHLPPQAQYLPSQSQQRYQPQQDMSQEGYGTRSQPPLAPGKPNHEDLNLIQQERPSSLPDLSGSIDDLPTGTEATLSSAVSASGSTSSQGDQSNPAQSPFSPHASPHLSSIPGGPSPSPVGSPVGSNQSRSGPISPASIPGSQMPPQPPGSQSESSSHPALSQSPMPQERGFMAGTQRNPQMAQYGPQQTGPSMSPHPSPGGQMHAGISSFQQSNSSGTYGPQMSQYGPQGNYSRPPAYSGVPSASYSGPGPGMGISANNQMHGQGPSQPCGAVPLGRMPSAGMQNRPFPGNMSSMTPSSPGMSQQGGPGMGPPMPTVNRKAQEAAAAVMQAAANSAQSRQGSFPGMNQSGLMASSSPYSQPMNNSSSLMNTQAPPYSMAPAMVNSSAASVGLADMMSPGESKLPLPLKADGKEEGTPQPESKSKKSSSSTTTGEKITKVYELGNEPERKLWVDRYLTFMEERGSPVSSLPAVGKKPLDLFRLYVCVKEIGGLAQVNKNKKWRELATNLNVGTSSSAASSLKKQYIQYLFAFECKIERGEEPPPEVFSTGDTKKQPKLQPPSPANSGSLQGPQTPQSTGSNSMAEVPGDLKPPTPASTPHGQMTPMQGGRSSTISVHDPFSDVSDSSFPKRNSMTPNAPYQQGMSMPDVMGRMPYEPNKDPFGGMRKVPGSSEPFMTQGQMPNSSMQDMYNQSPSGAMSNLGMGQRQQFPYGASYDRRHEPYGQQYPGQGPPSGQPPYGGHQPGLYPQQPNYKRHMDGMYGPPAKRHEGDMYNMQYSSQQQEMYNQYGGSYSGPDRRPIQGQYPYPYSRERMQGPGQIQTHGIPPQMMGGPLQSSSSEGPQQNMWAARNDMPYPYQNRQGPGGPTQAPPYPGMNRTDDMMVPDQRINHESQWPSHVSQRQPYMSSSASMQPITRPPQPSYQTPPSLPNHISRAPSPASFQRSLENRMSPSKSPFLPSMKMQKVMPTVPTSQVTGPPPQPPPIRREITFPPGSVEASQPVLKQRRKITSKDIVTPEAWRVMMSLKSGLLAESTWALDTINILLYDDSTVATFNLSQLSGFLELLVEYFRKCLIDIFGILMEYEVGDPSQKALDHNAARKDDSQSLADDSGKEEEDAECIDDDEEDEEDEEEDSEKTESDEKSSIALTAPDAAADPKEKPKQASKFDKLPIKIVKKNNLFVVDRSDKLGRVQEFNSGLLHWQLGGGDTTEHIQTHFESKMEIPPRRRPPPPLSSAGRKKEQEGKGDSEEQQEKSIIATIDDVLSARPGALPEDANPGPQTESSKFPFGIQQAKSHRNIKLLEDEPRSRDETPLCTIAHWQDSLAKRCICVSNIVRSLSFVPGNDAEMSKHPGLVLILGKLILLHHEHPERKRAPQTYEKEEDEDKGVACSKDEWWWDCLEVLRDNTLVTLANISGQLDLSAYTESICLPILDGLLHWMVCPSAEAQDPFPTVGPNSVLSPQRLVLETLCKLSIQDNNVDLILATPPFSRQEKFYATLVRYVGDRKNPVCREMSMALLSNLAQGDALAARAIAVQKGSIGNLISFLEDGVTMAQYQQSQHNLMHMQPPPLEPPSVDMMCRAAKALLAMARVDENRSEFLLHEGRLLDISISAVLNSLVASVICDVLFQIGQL

How the values were obtained:
[1] = target: AT-interacting domain-rich protein 1A (ARID1A), endogenous (human (endogenous in HEK293 and HCT116)) (UniProt O14497); assay: co-IP; endogenous ARID1A or ARID1B immunoprecipitated with anti-ARID1A or anti-ARID1B from HEK293 nuclear extract; partners by immunoblot
[2] = target: ARID1B, endogenous (human (endogenous in HEK293)) (UniProt Q8NFD5); assay: as above
[3] = target: GST–ARID1A–ARM domain (1914–2285 aa) (UniProt O14497); assay: pull-down; GST–ARID1A mutants or GST–ARID1B–ARM on Glutathione Sepharose beads incubated with HEK293 (methods: 293T) nuclear extract for 4 h at 4°C with RNase A and DNase I; bound proteins by immunoblot; only the target purified

Measured: binding

B1: DNA polymerase λ (POLL) (protein, UniProt Q9UGP5 1-575)
chain: MDPRGILKAFPKRQKIHADASSKVLAKIPRREEGEEAEEWLSSLRAHVVRTGIGRARAELFEKQIVQHGGQLCPAQGPGVTHIVVDEGMDYERALRLLRLPQLPPGAQLVKSAWLSLCLQERRLVDVAGFSIFIPSRYLDHPQPSKAEQDASIPPGTHEALLQTALSPPPPPTRPVSPPQKAKEAPNTQAQPISDDEASDGEETQVSAADLEALISGHYPTSLEGDCEPSPAPAVLDKWVCAQPSSQKATNHNLHITEKLEVLAKAYSVQGDKWRALGYAKAINALKSFHKPVTSYQEACSIPGIGKRMAEKIIEILESGHLRKLDHISESVPVLELFSNIWGAGTKTAQMWYQQGFRSLEDIRSQASLTTQQAIGLKHYSDFLERMPREEATEIEQTVQKAAQAFNSGLLCVACGSYRRGKATCGDVDVLITHPDGRSHRGIFSRLLDSLRQEGFLTDDLVSQEENGQQQKYLGVCRLPGPGRRHRRLDIIVVPYSEFACALLYFTGSAHFNRSMRALAKTKGMSLSEHALSTAVVRNTHGCKVGPGRVLPTPTEKDVFRLLGLPYREPAERDW
binds: all assays above
